# According to PMC3776750:
# Results are given in words; binding and its absence hold for the method and conditions named. For some of these results: In cells and extracts the contact can be indirect. Some binding calls cover weakened binding; strength is not graded here. Where a sequence is shown, tags or fusion partners need not be part of it.
# T1: CLUC-CPL1 1-714 (Arabidopsis thaliana) (UniProt Q5YDB6)
# T1 sequence: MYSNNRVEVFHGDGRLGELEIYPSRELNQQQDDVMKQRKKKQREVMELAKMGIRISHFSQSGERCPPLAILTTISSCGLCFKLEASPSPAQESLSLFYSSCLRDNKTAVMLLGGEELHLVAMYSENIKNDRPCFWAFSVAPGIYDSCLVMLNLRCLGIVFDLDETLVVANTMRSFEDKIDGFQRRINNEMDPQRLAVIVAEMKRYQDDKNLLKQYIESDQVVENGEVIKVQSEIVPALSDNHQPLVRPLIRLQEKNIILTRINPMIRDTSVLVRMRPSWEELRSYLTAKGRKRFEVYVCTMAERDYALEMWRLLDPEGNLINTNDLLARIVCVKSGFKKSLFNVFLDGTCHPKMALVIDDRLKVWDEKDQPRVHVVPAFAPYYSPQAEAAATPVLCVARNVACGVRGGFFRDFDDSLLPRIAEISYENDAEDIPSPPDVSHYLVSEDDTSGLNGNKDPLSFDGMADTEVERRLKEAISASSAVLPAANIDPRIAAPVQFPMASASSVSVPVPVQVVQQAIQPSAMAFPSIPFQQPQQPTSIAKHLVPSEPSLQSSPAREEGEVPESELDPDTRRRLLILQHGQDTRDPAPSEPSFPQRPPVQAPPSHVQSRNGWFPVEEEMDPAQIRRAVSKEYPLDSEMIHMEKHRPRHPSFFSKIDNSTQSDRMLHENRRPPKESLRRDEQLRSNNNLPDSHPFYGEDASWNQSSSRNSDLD
# T2: CLUC-CPL1 699-967 (Arabidopsis thaliana) (UniProt Q5YDB6)
# T2 sequence: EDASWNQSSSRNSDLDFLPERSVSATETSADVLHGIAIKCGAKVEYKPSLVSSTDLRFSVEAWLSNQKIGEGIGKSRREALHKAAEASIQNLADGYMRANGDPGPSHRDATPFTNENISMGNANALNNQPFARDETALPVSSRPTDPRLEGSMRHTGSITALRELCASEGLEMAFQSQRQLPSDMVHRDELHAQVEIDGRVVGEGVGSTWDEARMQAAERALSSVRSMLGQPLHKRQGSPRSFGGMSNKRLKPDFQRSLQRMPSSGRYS
# T3: CLUC-CPL1 (Arabidopsis thaliana) (UniProt Q5YDB6)
# T3 sequence: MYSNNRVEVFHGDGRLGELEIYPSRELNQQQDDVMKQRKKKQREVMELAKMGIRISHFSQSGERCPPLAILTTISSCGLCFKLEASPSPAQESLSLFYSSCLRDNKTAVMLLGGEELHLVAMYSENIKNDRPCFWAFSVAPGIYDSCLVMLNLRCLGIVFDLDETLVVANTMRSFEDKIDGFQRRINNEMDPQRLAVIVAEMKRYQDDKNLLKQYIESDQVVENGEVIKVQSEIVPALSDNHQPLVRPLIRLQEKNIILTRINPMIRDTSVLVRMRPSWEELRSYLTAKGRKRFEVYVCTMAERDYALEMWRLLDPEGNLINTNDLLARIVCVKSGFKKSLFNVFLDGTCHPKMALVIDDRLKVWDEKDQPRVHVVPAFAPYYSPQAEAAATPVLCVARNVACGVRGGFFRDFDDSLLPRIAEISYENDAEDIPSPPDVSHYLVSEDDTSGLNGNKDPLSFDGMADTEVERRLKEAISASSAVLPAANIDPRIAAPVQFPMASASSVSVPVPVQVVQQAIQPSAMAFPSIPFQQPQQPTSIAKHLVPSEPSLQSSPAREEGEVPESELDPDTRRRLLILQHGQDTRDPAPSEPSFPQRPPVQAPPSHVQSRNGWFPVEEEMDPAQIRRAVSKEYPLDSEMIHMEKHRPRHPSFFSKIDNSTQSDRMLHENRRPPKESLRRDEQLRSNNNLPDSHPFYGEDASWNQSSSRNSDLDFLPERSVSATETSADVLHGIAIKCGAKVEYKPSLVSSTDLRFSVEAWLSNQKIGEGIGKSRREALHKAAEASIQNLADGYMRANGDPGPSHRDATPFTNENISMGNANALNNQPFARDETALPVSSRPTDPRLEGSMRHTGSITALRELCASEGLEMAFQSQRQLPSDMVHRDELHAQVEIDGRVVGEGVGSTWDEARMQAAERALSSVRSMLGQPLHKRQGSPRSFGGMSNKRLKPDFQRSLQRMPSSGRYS
# T4: GAL4 DNA binding domain fused with CPL1 (Arabidopsis thaliana) (UniProt Q5YDB6)
# T4 sequence: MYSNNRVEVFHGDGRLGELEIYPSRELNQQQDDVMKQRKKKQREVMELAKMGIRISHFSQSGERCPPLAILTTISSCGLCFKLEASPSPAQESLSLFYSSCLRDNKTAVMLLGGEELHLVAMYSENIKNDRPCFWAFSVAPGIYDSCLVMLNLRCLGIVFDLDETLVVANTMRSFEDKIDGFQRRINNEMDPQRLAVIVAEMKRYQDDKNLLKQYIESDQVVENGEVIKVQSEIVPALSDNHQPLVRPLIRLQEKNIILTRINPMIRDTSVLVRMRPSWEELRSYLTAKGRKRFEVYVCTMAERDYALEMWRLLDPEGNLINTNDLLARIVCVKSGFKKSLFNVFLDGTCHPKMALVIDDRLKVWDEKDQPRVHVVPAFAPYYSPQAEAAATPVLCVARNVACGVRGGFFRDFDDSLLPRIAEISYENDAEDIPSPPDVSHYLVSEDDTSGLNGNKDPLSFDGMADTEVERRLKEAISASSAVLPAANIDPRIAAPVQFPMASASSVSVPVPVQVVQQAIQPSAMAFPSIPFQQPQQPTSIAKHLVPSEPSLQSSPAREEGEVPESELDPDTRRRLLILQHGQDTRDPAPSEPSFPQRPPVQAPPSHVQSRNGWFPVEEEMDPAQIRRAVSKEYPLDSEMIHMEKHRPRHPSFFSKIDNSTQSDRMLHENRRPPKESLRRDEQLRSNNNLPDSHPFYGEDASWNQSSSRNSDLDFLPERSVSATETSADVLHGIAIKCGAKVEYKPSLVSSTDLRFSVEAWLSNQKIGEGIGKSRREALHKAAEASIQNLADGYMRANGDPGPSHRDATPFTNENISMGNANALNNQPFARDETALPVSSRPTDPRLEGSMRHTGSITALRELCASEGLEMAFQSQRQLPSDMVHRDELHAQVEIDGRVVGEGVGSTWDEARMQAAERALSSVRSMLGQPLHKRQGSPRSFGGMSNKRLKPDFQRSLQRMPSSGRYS
# How the values were obtained:
# [1] = target: T1, CLUC-CPL1 1-714 (Arabidopsis thaliana); assay: split reporter; luciferase complementation imaging (LuCI): NLUC and CLUC fusions with P19 infiltrated by Agrobacterium into N. benthamiana leaves; luminescence imaged 3 d after infiltration
# [2] = target: T2, CLUC-CPL1 699-967 (Arabidopsis thaliana); assay: as above
# [3] = target: T3, CLUC-CPL1 (Arabidopsis thaliana); assay: as above
# [4] = target: T4, GAL4 DNA binding domain fused with CPL1 (Arabidopsis thaliana); assay: two-hybrid; yeast PJ69-4A, GAL4 BD (pBUTE^GW) and AD (pGAD^GW) fusions; growth on SD -ULHA at 28°C for 48 h
Binder,binding [1],binding [2],binding [3],binding [4]
"NLUC-HYL1 (HYL1 1-223) (domain or fragment, UniProt O04492 1-223) MTSTDVSSGVSNCYVFKSRLQEYAQKYKLPTPVYEIVKEGPSHKSLFQSTVILDGVRYNSLPGFFNRKAAEQSAAEVALRELAKSSELSQCVSQPVHETGLCKNLLQEYAQKMNYAIPLYQCQKVETLGRVTQFTCTVEIGGIKYTGAATRTKKDAEISAGRTALLAIQSDTKNNLANYNTQLTVLPCEKKTIQAAIPLKETVKTLKARKAQFKKKAQKGKRT",no binding,binds,binds,
"NLUC-SE (SERRATE) (protein, UniProt Q9ZVD0 1-720) MADVNLPPSDSVDNRLPEKSTSSSPPPPPPSSSLPQQEQEQDQQQLPLRRERDSRERRDERDIERPPPNRRERDRSPLPPPRRDYKRRPSLSPPPPYRDRRHSPPQRRSPPQKRYRRDDNGYDGRRGSPRGGYGPPDRRFGYDHGGGYDREMGGRPGYGDERPHGRFMGRYQDWEGGRGGYGDASNSGNPQRDGLMSYKQFIQELEDDILPSEAERRYQEYKSEYITTQKRAFFNTHKEEDWLKNKYHPTNLLSVIERRNDLAQKVAKDFLLDLQSGTLDLGPAVTALNKSGRTSEPNSEDEAAGVGKRKRHGMGGAKENELLSAAPKAPSFTSDPKRILTDVEQTQALVRKLDSEKKIEENVLQGSETEKSGREKLHSGSTGPVVIIRGLTSVKGLEGVELLDTLVTYLWRVHGLDYYGKVETNEAKGLRHVRAEGKVSDAKGDENESKFDSHWQERLKGQDPLEVMAAKEKIDAAATEALDPHVRKIRDEKYGWKYGCGAKGCTKLFHAAEFVYKHLKLKHTELVTELTTKVREELYFQNYMNDPNAPGGQPATQQSGPRDRPIRRKPSMENRLRDDRGGRRERDGRANGNDRNDRSEDQQRGDNDGGNPGEVGYDAFGGQGGVHVPPFLSDINPPPMLMPVPGAGPLGPFVPAPPEVAMQMFRDPSGPNPPFEGSGRGGPAPFLLSPAFRQDPRRLRSYQDLDAPEEEVTVIDYRSL",no binding,binds,binds,
"GAL4 activation domain fused with SE (protein, UniProt Q9ZVD0 1-720) MADVNLPPSDSVDNRLPEKSTSSSPPPPPPSSSLPQQEQEQDQQQLPLRRERDSRERRDERDIERPPPNRRERDRSPLPPPRRDYKRRPSLSPPPPYRDRRHSPPQRRSPPQKRYRRDDNGYDGRRGSPRGGYGPPDRRFGYDHGGGYDREMGGRPGYGDERPHGRFMGRYQDWEGGRGGYGDASNSGNPQRDGLMSYKQFIQELEDDILPSEAERRYQEYKSEYITTQKRAFFNTHKEEDWLKNKYHPTNLLSVIERRNDLAQKVAKDFLLDLQSGTLDLGPAVTALNKSGRTSEPNSEDEAAGVGKRKRHGMGGAKENELLSAAPKAPSFTSDPKRILTDVEQTQALVRKLDSEKKIEENVLQGSETEKSGREKLHSGSTGPVVIIRGLTSVKGLEGVELLDTLVTYLWRVHGLDYYGKVETNEAKGLRHVRAEGKVSDAKGDENESKFDSHWQERLKGQDPLEVMAAKEKIDAAATEALDPHVRKIRDEKYGWKYGCGAKGCTKLFHAAEFVYKHLKLKHTELVTELTTKVREELYFQNYMNDPNAPGGQPATQQSGPRDRPIRRKPSMENRLRDDRGGRRERDGRANGNDRNDRSEDQQRGDNDGGNPGEVGYDAFGGQGGVHVPPFLSDINPPPMLMPVPGAGPLGPFVPAPPEVAMQMFRDPSGPNPPFEGSGRGGPAPFLLSPAFRQDPRRLRSYQDLDAPEEEVTVIDYRSL",,,,binds
